Measurements as given in article PMC5700166.
Only a part is listed here, and it is no random draw. For some assays here: The list includes weakly bound sequences.

How the values were obtained:
Assay in all cases: protein-binding microarray (PBM)
Details in all cases: PBM: ~300 nM protein, 6 mM HEPES pH 7.8, 80 mM KCl, 0.5 mM EDTA, 0.5 mM EGTA, 6% glycerol, 35 ng/ul poly-dIdC, 1% milk, 1 h, room temperature; Ap Aiptasia and Nv Nematostella (sea anemones) / Co Capsaspora / Aq Amphimedon (sponge) / Dm Drosophila / Hu human; RHD is the Rel homology domain; high values mean tight binding; most listed sequences are background and not binding sites; double strand, one strand shown
GST-Ap-NF-kB RHD = biological target: T1, GST-Ap-NF-kB RHD (UniProt A0A913YAJ5)
T1 sequence: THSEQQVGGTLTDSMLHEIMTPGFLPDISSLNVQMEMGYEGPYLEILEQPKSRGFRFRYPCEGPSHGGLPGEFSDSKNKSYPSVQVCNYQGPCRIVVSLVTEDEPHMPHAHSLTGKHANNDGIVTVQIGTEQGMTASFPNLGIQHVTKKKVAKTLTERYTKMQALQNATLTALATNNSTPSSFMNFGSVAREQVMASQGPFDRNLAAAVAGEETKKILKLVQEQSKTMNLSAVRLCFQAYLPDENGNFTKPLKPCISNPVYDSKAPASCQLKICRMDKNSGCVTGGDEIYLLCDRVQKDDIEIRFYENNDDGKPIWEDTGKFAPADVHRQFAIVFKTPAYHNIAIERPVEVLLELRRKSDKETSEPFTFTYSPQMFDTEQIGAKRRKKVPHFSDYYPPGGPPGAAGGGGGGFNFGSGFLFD

GST-Co-NF-kB = biological target: T2, GST-Co-NF-kB (UniProt F1ARL5)
T2 sequence: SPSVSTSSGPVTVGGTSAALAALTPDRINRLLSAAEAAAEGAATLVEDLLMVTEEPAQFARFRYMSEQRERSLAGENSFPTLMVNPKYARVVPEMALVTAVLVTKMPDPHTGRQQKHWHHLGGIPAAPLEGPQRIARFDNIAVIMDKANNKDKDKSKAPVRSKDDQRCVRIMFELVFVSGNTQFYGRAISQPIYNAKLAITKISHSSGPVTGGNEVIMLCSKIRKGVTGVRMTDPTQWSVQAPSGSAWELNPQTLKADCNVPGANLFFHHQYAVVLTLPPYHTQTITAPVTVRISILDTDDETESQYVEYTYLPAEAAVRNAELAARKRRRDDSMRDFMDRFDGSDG

GST-Dm-Relish = biological target: T3, GST-Dm-Relish (UniProt Q94527)
T3 sequence: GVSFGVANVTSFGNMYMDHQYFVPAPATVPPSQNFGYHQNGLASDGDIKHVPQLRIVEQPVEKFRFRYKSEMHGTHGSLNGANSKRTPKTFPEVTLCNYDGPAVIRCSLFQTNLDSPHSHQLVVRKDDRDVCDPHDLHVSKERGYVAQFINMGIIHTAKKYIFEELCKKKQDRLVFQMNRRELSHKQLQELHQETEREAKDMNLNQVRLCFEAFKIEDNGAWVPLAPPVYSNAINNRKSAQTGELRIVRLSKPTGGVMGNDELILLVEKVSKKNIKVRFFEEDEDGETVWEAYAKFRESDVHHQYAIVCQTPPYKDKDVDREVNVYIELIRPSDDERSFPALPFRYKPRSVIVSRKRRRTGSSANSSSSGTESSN

Sequence	binding signal (GST-Ap-NF-kB RHD) [z-score]	binding signal (GST-Co-NF-kB) [z-score]	binding signal (GST-Dm-Relish) [z-score]
CCGATTAACATCAGGATAGCCCCTGATGTTAATCGGGTCTTGATTCGCTTGACGCTGCTG	4	0.751	–
CCGATTAACATCAAAAAAGACCCTGATGTTAATCGGGTCTTGATTCGCTTGACGCTGCTG	2.93	-0.0672	–
CCGATTAACATCAGGGGGGACTATGATGTTAATCGGGTCTTGATTCGCTTGACGCTGCTG	5.46	5.47	–
CCGATTAACATCAAAAAAGTCCGTGATGTTAATCGGGTCTTGATTCGCTTGACGCTGCTG	0.0431	0.644	–
CCGATTAACATCACGGGTATTCCTGATGTTAATCGGGTCTTGATTCGCTTGACGCTGCTG	4.85	1.3	–
CCGATTAACATCAGGGAGGTACCTGATGTTAATCGGGTCTTGATTCGCTTGACGCTGCTG	3.34	0.824	–
CCGATTAACATCATTTCCCAAAATGATGTTAATCGGGTCTTGATTCGCTTGACGCTGCTG	-0.136	1.54	–
CCGATTAACATCACAAAAGTCCCTGATGTTAATCGGGTCTTGATTCGCTTGACGCTGCTG	7.21	2.27	7.55
CCGATTAACATCAGGGAAGCACCTGATGTTAATCGGGTCTTGATTCGCTTGACGCTGCTG	4.67	0.793	9.38
CCGATTAACATCAAGGTATTTCCTGATGTTAATCGGGTCTTGATTCGCTTGACGCTGCTG	0.974	0.36	–
CCGATTAACATCAGGAATATACCTGATGTTAATCGGGTCTTGATTCGCTTGACGCTGCTG	0.131	-0.25	–
CCGATTAACATCAGGGAGTTCACTGATGTTAATCGGGTCTTGATTCGCTTGACGCTGCTG	2.23	0.866	–
